Data published in article PMC5006311.
These are yes or no findings as the source states them, for the method shown. In cells and extracts the contact can be indirect. Some results given as binding are weak or reduced against the parent protein; the word gives no strength. For part of these data: Sequences can lack the tags named with a protein.

T1: ENT1 (of the unpublished co-immunoprecipitations) (UniProt Q99808)
T1 sequence: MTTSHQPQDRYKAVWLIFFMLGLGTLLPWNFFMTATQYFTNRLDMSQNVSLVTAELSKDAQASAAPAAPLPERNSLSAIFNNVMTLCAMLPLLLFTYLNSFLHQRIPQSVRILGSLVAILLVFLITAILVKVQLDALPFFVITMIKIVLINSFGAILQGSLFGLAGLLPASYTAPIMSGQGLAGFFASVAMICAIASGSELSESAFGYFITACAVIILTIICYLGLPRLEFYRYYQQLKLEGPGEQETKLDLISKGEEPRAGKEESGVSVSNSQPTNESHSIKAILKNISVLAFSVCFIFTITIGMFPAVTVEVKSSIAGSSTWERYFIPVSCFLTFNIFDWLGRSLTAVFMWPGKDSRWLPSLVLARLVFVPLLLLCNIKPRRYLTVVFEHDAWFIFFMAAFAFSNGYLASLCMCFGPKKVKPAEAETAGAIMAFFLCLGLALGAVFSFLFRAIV

T2: ENT2 (of the unpublished co-immunoprecipitations) (UniProt Q14542)
T2 sequence: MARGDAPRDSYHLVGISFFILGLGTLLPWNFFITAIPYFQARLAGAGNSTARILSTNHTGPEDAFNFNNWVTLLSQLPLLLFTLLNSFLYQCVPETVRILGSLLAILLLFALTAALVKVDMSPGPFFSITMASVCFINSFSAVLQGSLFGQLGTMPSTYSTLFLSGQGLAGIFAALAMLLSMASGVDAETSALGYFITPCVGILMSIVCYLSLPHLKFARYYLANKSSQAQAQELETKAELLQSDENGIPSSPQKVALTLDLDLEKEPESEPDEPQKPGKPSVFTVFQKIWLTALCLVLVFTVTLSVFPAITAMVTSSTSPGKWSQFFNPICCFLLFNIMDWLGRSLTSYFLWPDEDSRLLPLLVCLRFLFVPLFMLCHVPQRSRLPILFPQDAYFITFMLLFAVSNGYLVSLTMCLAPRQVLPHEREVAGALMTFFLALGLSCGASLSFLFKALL

T3: wild type human equilibrative nucleoside transporter 1 (hENT1), as HA-hENT1 and as 3xFLAG-hENT1 (human) (UniProt Q99808)
T3 sequence (chain, N-linked glycan at N48): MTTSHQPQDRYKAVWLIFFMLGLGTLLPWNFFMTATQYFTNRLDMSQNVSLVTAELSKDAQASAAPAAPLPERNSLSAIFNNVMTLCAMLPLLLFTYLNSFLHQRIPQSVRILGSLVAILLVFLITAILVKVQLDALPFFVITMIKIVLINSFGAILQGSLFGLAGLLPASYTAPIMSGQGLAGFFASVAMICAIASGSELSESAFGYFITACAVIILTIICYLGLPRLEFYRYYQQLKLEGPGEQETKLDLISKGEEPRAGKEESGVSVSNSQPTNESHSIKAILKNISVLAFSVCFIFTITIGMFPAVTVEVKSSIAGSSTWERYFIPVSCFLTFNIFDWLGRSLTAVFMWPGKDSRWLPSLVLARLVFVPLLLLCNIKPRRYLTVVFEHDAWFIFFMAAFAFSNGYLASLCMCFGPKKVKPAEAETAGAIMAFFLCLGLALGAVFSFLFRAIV


Tests used:
[1] = biological target: T1, ENT1 (of the unpublished co-immunoprecipitations); assay: co-IP; unpublished data (Grañe-Boladeras et al.); no conditions given
[2] = biological target: T2, ENT2 (of the unpublished co-immunoprecipitations); assay: as above
[3] = biological target: T3, wild type human equilibrative nucleoside transporter 1 (hENT1), as HA-hENT1 and as 3xFLAG-hENT1 (human); assay: co-IP; HEK293 co-transfected with HA-ENT1 and a 3xFLAG construct; NP-40 lysate on anti-HA beads, about 18 h at 4°C, washed three times with TTBS; eluate immunoblotted with anti-FLAG; lysate loaded: wt 100 μg, N48Q 1000 μg, hLa 600 μg

| binding [1] | binding [2] | Binder | binding [3] |
| --- | --- | --- | --- |
| binds | binds | ENT2 (of the unpublished co-immunoprecipitations) (protein, UniProt Q14542 1-456) MARGDAPRDSYHLVGISFFILGLGTLLPWNFFITAIPYFQARLAGAGNSTARILSTNHTGPEDAFNFNNWVTLLSQLPLLLFTLLNSFLYQCVPETVRILGSLLAILLLFALTAALVKVDMSPGPFFSITMASVCFINSFSAVLQGSLFGQLGTMPSTYSTLFLSGQGLAGIFAALAMLLSMASGVDAETSALGYFITPCVGILMSIVCYLSLPHLKFARYYLANKSSQAQAQELETKAELLQSDENGIPSSPQKVALTLDLDLEKEPESEPDEPQKPGKPSVFTVFQKIWLTALCLVLVFTVTLSVFPAITAMVTSSTSPGKWSQFFNPICCFLLFNIMDWLGRSLTSYFLWPDEDSRLLPLLVCLRFLFVPLFMLCHVPQRSRLPILFPQDAYFITFMLLFAVSNGYLVSLTMCLAPRQVLPHEREVAGALMTFFLALGLSCGASLSFLFKALL | – |
| – | – | wild type human equilibrative nucleoside transporter 1 (hENT1), as HA-hENT1 and as 3xFLAG-hENT1 (protein, UniProt Q99808-1 1-456, N-linked glycan at N48) MTTSHQPQDRYKAVWLIFFMLGLGTLLPWNFFMTATQYFTNRLDMSQNVSLVTAELSKDAQASAAPAAPLPERNSLSAIFNNVMTLCAMLPLLLFTYLNSFLHQRIPQSVRILGSLVAILLVFLITAILVKVQLDALPFFVITMIKIVLINSFGAILQGSLFGLAGLLPASYTAPIMSGQGLAGFFASVAMICAIASGSELSESAFGYFITACAVIILTIICYLGLPRLEFYRYYQQLKLEGPGEQETKLDLISKGEEPRAGKEESGVSVSNSQPTNESHSIKAILKNISVLAFSVCFIFTITIGMFPAVTVEVKSSIAGSSTWERYFIPVSCFLTFNIFDWLGRSLTAVFMWPGKDSRWLPSLVLARLVFVPLLLLCNIKPRRYLTVVFEHDAWFIFFMAAFAFSNGYLASLCMCFGPKKVKPAEAETAGAIMAFFLCLGLALGAVFSFLFRAIV | binds |
| binds | binds | ENT1 (of the unpublished co-immunoprecipitations) (protein, UniProt Q99808 1-456) MTTSHQPQDRYKAVWLIFFMLGLGTLLPWNFFMTATQYFTNRLDMSQNVSLVTAELSKDAQASAAPAAPLPERNSLSAIFNNVMTLCAMLPLLLFTYLNSFLHQRIPQSVRILGSLVAILLVFLITAILVKVQLDALPFFVITMIKIVLINSFGAILQGSLFGLAGLLPASYTAPIMSGQGLAGFFASVAMICAIASGSELSESAFGYFITACAVIILTIICYLGLPRLEFYRYYQQLKLEGPGEQETKLDLISKGEEPRAGKEESGVSVSNSQPTNESHSIKAILKNISVLAFSVCFIFTITIGMFPAVTVEVKSSIAGSSTWERYFIPVSCFLTFNIFDWLGRSLTAVFMWPGKDSRWLPSLVLARLVFVPLLLLCNIKPRRYLTVVFEHDAWFIFFMAAFAFSNGYLASLCMCFGPKKVKPAEAETAGAIMAFFLCLGLALGAVFSFLFRAIV | – |
| – | – | N48Q-3xFLAG-hENT1 (N-glycosylation mutant of human ENT1) (protein, UniProt Q99808-1 1-456) MTTSHQPQDRYKAVWLIFFMLGLGTLLPWNFFMTATQYFTNRLDMSQQVSLVTAELSKDAQASAAPAAPLPERNSLSAIFNNVMTLCAMLPLLLFTYLNSFLHQRIPQSVRILGSLVAILLVFLITAILVKVQLDALPFFVITMIKIVLINSFGAILQGSLFGLAGLLPASYTAPIMSGQGLAGFFASVAMICAIASGSELSESAFGYFITACAVIILTIICYLGLPRLEFYRYYQQLKLEGPGEQETKLDLISKGEEPRAGKEESGVSVSNSQPTNESHSIKAILKNISVLAFSVCFIFTITIGMFPAVTVEVKSSIAGSSTWERYFIPVSCFLTFNIFDWLGRSLTAVFMWPGKDSRWLPSLVLARLVFVPLLLLCNIKPRRYLTVVFEHDAWFIFFMAAFAFSNGYLASLCMCFGPKKVKPAEAETAGAIMAFFLCLGLALGAVFSFLFRAIV | no binding (tested: 1000 μg lysate loaded to column) |
